Paper PMC9343540
No constants are given. Whether binding was seen depends on the method and setting. For part of these data: In cells and extracts the contact can be indirect. Some entries that bind do so weakly or less than the wild type. For part of these data: Sequences can lack the tags named with a protein. Blank lines part the entries; values can stand above or below the molecule they belong to.

Amino acid sequences for entries named in this document (tags omitted).
UniProt A2AWL7: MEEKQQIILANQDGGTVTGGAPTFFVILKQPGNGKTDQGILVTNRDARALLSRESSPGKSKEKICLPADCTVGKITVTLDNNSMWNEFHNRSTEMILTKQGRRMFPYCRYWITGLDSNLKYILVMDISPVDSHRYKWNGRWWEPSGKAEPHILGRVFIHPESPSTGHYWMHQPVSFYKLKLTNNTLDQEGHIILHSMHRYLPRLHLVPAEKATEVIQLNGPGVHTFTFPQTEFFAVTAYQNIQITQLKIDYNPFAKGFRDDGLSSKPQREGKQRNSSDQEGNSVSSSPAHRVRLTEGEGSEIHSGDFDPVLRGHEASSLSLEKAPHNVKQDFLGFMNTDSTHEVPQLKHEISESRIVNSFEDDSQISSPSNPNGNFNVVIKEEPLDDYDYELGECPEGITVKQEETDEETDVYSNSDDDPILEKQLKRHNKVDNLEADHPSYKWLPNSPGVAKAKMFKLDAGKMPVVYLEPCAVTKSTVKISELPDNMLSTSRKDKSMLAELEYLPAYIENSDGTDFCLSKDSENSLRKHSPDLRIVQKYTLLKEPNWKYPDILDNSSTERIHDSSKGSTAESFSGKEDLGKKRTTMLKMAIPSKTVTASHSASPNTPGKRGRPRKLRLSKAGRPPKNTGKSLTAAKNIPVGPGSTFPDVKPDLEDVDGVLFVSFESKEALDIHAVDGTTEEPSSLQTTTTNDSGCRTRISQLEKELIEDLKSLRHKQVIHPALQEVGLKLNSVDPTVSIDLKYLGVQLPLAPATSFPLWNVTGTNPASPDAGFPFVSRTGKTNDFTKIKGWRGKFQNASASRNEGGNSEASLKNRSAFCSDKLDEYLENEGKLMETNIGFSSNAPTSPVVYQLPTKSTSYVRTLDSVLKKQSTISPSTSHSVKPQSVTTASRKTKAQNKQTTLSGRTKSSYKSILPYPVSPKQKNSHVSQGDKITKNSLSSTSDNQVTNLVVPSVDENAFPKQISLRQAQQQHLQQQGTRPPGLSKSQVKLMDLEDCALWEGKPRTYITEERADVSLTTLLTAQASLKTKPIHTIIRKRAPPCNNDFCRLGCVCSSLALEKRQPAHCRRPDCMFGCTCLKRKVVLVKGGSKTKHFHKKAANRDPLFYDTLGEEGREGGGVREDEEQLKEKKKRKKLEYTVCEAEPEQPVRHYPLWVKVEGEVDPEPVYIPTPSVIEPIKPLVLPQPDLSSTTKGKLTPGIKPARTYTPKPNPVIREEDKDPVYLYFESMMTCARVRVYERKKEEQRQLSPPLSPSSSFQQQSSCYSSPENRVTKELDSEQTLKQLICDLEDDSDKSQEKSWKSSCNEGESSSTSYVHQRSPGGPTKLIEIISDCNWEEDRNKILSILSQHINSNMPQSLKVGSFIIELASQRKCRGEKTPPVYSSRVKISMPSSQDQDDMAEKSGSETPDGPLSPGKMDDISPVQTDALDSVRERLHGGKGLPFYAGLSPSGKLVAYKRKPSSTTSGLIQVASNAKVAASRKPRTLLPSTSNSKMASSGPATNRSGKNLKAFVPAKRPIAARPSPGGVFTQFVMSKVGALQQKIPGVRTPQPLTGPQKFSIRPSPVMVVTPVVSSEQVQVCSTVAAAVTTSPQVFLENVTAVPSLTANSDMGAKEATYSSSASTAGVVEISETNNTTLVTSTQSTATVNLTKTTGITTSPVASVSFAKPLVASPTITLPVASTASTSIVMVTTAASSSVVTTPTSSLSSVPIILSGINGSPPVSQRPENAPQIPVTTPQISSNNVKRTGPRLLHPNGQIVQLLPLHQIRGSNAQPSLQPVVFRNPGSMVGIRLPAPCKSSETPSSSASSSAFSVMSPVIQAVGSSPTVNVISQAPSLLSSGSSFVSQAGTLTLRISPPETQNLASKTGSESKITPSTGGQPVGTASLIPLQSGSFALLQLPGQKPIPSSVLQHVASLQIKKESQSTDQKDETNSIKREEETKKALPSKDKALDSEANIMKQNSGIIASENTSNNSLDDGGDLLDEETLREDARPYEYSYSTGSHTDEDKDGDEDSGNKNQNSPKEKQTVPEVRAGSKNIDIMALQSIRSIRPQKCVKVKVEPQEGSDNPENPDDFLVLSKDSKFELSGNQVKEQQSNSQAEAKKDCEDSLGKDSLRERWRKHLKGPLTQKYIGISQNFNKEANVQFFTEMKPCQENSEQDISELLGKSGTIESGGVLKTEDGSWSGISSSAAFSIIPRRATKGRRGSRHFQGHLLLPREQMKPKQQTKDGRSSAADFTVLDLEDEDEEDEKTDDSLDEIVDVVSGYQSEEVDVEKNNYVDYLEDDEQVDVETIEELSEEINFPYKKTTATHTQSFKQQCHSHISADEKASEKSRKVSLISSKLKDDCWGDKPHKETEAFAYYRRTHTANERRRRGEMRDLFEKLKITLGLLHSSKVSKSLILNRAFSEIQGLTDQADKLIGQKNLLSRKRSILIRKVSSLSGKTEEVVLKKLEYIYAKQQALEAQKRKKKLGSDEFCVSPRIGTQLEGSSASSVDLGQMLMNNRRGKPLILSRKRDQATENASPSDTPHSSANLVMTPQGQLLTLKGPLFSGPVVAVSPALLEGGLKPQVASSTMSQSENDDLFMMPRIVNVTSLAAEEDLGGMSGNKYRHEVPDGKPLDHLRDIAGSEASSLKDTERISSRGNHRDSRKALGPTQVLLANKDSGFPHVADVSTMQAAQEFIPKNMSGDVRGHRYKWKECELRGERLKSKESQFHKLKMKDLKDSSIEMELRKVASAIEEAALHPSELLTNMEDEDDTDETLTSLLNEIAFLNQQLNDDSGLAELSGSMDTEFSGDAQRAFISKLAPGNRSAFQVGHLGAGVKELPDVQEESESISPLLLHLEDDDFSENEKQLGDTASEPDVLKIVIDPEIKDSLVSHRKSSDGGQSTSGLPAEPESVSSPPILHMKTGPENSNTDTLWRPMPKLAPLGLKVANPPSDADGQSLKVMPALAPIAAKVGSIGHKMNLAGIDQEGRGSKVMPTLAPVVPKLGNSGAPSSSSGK
UniProt Q3UK78: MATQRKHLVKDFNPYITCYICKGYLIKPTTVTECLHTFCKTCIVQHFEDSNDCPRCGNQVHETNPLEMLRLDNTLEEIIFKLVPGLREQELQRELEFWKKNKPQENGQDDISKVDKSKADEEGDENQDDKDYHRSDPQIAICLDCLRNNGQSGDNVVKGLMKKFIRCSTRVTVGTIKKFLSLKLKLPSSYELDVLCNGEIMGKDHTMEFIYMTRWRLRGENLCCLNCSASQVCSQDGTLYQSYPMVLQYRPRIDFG
UniProt Q6PR54: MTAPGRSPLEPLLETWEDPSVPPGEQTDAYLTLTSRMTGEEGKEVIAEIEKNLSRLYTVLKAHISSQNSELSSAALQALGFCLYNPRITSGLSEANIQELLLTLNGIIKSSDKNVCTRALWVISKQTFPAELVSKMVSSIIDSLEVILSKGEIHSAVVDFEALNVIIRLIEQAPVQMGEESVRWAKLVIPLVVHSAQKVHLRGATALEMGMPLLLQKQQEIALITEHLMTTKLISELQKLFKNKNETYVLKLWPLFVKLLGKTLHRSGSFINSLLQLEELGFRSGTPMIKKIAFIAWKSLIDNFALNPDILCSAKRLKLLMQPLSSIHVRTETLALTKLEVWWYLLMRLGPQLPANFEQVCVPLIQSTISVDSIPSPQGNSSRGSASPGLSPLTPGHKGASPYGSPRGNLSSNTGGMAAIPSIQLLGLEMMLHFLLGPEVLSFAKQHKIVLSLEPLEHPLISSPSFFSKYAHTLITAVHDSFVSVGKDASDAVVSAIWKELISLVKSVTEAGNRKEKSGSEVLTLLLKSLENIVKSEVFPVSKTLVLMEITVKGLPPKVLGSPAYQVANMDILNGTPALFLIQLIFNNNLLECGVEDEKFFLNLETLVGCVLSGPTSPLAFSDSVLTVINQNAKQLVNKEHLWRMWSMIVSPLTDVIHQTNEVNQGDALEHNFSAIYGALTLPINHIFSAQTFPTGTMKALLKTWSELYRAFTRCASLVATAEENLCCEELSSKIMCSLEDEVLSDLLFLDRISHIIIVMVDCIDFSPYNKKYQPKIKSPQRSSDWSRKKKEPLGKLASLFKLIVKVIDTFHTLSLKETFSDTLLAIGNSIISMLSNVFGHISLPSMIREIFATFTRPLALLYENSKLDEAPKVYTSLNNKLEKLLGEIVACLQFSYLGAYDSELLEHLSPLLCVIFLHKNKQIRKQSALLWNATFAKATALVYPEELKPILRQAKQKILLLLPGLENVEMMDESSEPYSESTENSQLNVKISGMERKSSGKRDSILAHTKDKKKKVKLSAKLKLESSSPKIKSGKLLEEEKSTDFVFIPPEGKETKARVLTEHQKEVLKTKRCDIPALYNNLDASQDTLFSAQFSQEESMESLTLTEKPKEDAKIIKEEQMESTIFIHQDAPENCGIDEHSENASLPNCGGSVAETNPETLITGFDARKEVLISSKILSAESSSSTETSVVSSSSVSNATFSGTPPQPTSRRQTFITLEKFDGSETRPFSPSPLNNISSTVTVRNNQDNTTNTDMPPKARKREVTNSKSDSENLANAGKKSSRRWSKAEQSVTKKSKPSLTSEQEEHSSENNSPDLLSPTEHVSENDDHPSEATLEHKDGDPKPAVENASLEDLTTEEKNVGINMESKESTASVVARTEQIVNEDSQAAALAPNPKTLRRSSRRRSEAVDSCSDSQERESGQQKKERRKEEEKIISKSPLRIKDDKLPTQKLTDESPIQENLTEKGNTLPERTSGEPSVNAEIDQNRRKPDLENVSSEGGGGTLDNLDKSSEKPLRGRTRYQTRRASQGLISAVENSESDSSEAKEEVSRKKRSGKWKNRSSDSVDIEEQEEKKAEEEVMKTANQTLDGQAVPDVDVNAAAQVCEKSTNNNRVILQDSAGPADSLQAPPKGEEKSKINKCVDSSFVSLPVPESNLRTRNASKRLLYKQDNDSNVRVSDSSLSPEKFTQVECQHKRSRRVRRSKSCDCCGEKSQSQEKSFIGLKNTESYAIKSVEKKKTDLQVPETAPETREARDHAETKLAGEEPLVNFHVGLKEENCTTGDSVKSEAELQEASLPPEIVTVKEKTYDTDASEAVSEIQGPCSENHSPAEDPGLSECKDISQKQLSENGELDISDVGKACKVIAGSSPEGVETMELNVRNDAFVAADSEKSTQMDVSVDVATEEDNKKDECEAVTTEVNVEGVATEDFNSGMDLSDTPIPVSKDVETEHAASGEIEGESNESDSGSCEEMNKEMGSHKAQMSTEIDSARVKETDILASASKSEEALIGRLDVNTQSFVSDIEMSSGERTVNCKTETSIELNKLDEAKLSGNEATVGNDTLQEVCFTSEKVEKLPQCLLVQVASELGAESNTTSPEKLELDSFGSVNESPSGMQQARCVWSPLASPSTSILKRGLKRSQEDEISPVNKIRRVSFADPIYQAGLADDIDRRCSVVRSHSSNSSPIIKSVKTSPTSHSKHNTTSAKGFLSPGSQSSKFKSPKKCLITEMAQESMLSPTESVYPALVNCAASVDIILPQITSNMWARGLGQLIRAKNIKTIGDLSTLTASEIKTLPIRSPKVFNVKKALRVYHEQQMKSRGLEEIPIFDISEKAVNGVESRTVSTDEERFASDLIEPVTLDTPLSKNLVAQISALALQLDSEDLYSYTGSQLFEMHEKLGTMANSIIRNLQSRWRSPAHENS
UniProt Q9CQJ4: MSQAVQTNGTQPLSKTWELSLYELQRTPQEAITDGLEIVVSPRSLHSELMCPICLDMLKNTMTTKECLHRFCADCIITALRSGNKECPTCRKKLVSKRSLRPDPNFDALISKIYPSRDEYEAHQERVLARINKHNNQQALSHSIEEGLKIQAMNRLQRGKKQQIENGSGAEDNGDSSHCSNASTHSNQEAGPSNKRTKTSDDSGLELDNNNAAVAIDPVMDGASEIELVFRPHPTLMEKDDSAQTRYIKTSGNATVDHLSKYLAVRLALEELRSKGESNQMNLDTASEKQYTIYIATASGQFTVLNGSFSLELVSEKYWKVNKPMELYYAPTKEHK

How the values were obtained:
[1] = biological target: T1, endogenous Pcgf6 (mESCs) (mouse (endogenous in mESCs)) (UniProt Q99NA9); test: SEC; gel filtration of mESC nuclear extracts (Rif1 WT control and Rif1 CKO) on Superdex 200 increase 10/300 GL in 50 mM Tris pH 8.0, 150 mM NaCl; fractions examined by Western blot
T1 sequence: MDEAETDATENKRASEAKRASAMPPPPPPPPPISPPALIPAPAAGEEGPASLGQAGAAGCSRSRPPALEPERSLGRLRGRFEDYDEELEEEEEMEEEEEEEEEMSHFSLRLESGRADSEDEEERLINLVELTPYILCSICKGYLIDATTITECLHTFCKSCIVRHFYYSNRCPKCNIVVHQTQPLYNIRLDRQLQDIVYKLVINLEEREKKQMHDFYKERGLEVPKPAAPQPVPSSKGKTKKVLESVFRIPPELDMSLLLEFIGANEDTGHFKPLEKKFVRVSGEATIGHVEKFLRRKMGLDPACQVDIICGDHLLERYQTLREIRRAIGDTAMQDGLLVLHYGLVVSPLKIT

[2] = biological target: endogenously HA-tagged Mga (HA-Mga KI mESCs) (mouse (endogenous in E14 mESCs)) (UniProt A2AWL7); test: co-IP; endogenous proteins in HA knock-in mESCs (HA-Rif1, HA-Pcgf6, HA-Mga); anti-HA affinity matrix overnight at 4 °C; lysis buffer 50 mM Tris, 150 mM NaCl, 0.5% NP40, 5 mM EDTA, pH 7.5; Western blot; HA-Pcgf6 KI cells also treated with shRNA targeting NT or Rif1
[3] = biological target: T2, endogenously HA-tagged Pcgf6 (HA-Pcgf6 KI mESCs) (mouse (endogenous in E14 mESCs)) (UniProt Q99NA9); test: as above
T2 sequence: T1 sequence

[4] = biological target: Flag-Pcgf5 (UniProt Q3UK78); test: co-IP; HEK293T cells ectopically expressing HA-Rif1 and Flag-tagged Pcgf proteins; anti-Flag M2 affinity gel overnight at 4 °C; lysis buffer 50 mM Tris, 150 mM NaCl, 0.5% NP40, 5 mM EDTA, pH 7.5; Western blot
[5] = biological target: T3, Flag-Pcgf3 (UniProt Q8BTQ0); test: as above
T3 sequence: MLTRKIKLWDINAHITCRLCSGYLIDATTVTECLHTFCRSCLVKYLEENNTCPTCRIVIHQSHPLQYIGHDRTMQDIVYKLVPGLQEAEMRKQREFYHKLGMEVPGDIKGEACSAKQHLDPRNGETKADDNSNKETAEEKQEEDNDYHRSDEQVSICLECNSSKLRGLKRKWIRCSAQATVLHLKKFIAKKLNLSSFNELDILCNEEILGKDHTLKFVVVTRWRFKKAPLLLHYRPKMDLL

[6] = biological target: T4, Flag-Pcgf1 (UniProt Q8R023); test: as above
T4 sequence: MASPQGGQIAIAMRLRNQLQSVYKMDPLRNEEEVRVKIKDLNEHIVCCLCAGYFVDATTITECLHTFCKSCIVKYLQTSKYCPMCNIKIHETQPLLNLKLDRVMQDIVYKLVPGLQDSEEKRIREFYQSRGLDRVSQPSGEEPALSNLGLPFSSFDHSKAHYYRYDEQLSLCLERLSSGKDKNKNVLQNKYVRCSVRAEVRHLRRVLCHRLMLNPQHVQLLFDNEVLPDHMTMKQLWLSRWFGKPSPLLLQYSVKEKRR

[7] = biological target: T5, Flag-Pcgf4 (UniProt P25916); test: as above
T5 sequence: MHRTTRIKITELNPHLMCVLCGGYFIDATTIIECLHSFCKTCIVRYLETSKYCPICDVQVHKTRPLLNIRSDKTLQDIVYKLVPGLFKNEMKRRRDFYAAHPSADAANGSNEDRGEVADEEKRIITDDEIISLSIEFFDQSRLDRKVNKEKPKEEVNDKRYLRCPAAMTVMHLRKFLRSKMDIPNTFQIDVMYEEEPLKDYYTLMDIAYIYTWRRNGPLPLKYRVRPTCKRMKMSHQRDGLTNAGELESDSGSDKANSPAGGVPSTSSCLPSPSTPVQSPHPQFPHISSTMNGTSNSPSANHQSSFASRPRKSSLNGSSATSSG

[8] = biological target: T6, Flag-Pcgf6 (UniProt Q99NA9); test: as above
T6 sequence: T1 sequence

[9] = biological target: T7, Flag-Pcgf2 (UniProt P23798); test: as above
T7 sequence: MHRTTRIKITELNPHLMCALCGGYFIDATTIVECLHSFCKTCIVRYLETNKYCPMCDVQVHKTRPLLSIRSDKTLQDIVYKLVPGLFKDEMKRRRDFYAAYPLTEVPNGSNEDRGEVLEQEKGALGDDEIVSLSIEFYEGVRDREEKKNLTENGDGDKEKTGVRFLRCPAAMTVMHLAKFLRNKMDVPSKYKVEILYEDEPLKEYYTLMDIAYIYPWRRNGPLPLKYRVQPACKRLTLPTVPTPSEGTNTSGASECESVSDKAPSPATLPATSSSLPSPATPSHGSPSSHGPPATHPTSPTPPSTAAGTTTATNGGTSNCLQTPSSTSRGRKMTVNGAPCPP

[10] = biological target: endogenously HA-tagged Rif1 (HA-Rif1 KI mESCs) (mouse (endogenous in mESCs)) (UniProt Q6PR54); test: co-IP; endogenous proteins in HA knock-in mESCs (HA-Rif1, HA-Pcgf6, HA-Mga); anti-HA affinity matrix overnight at 4 °C; lysis buffer 50 mM Tris, 150 mM NaCl, 0.5% NP40, 5 mM EDTA, pH 7.5; Western blot; HA-Pcgf6 KI cells also treated with shRNA targeting NT or Rif1

Molecule: endogenous Rif1 (from UniProt Q6PR54 1-2419)
binding [1]: binds
binding [2]: binds
binding [3]: binds

Molecule: HA-Rif1 (ectopically expressed HA-tagged Rif1) (from UniProt Q6PR54 1-2419)
binding [4]: no binding
binding [5]: no binding
binding [6]: no binding
binding [7]: no binding
binding [8]: binds
binding [9]: no binding

B2: endogenous RYBP (mESCs) (protein, UniProt Q8CCI5 1-228)
chain: MTMGDKKSPTRPKRQAKPAADEGFWDCSVCTFRNSAEAFKCSICDVRKGTSTRKPRINSQLVAQQVAQQYATPPPPKKEKKEKVEKPDKEKPEKDKDISPSVTKKNTNKKTKPKSDILKDPPSEANSIQSANATTKTSETNHTSRPRLKNVDRSTAQQLAVTVGNVTVIITDFKEKTRSSSTSSSTVTSSAGSEQQNQSSSGSESTDKGSSRSSTPKGDMSAVNDESF
binding [3]: binds

Next, values leading:

binding [3]: binds
Molecule: endogenous RNF2 (mESCs) (from UniProt Q9CQJ4 1-336)

binding [10]: binds
B1: endogenous Pcgf6 (mESCs) (protein, UniProt Q99NA9 1-353)
chain: T1 sequence
